The values that follow come from article PMC4600972.

Chains of the proteins cited; added tags and fusions are not shown.
UniProt Q96A37: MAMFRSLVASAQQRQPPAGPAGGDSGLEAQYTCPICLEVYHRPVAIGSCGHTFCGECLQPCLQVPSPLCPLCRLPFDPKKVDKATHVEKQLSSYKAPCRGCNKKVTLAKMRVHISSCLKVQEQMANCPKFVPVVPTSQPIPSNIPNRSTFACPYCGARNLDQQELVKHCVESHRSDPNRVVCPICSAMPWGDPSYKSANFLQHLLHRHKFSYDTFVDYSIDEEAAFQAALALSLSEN
UniProt Q7Z434: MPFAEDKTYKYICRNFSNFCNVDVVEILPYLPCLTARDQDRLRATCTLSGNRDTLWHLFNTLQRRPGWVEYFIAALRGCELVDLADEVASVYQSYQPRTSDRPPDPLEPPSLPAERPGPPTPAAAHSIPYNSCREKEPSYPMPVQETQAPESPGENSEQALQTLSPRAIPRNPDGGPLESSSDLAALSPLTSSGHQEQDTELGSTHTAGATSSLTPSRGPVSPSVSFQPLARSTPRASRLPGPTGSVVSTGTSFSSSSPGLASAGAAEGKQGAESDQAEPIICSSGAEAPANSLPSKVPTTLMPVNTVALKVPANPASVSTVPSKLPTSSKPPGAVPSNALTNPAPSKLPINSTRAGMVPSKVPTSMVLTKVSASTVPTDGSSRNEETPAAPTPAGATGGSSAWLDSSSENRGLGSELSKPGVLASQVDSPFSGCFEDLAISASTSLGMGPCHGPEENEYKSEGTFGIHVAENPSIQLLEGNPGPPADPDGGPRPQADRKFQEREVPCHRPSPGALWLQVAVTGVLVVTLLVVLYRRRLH

The chains are these.
B1: Flag-RIG-I (protein, UniProt O95786 1-925)
chain: MTTEQRRSLQAFQDYIRKTLDPTYILSYMAPWFREEEVQYIQAEKNNKGPMEAATLFLKFLLELQEEGWFRGFLDALDHAGYSGLYEAIESWDFKKIEKLEEYRLLLKRLQPEFKTRIIPTDIISDLSECLINQECEEILQICSTKGMMAGAEKLVECLLRSDKENWPKTLKLALEKERNKFSELWIVEKGIKDVETEDLEDKMETSDIQIFYQEDPECQNLSENSCPPSEVSDTNLYSPFKPRNYQLELALPAMKGKNTIICAPTGCGKTFVSLLICEHHLKKFPQGQKGKVVFFANQIPVYEQQKSVFSKYFERHGYRVTGISGATAENVPVEQIVENNDIIILTPQILVNNLKKGTIPSLSIFTLMIFDECHNTSKQHPYNMIMFNYLDQKLGGSSGPLPQVIGLTASVGVGDAKNTDEALDYICKLCASLDASVIATVKHNLEELEQVVYKPQKFFRKVESRISDKFKYIIAQLMRDTESLAKRICKDLENLSQIQNREFGTQKYEQWIVTVQKACMVFQMPDKDEESRICKALFLYTSHLRKYNDALIISEHARMKDALDYLKDFFSNVRAAGFDEIEQDLTQRFEEKLQELESVSRDPSNENPKLEDLCFILQEEYHLNPETITILFVKTRALVDALKNWIEGNPKLSFLKPGILTGRGKTNQNTGMTLPAQKCILDAFKASGDHNILIATSVADEGIDIAQCNLVILYEYVGNVIKMIQTRGRGRARGSKCFLLTSNAGVIEKEQINMYKEKMMNDSILRLQTWDEAVFREKILHIQTHEKFIRDSQEKPKPVPDKENKKLLCRKCKALACYTADVRVIEECHYTVLGDAFKECFVSRPHPKPKQFSSFEKRAKIFCARQNCSHDWGIHVKYKTFEIPVIKIESFVVEDIATGVQTLYSKWKDFHFEKIPFDPAEMSK
B2: Flag-IRF3 (protein, UniProt Q14653 1-427)
chain: MGTPKPRILPWLVSQLDLGQLEGVAWVNKSRTRFRIPWKHGLRQDAQQEDFGIFQAWAEATGAYVPGRDKPDLPTWKRNFRSALNRKEGLRLAEDRSKDPHDPHKIYEFVNSGVGDFSQPDTSPDTNGGGSTSDTQEDILDELLGNMVLAPLPDPGPPSLAVAPEPCPQPLRSPSLDNPTPFPNLGPSENPLKRLLVPGEEWEFEVTAFYRGRQVFQQTISCPEGLRLVGSEVGDRTLPGWPVTLPDPGMSLTDRGVMSYVRHVLSCLGGGLALWRAGQWLWAQRLGHCHTYWAVSEELLPNSGHGPDGEVPKDKEGGVFDLGPFIVDLITFTEGSGRSPRYALWFCVGESWPQDQPWTKRLVMVKVVPTCLRALVEMARVGGASSLENTVDLHISNSHPLSLTSDQYKAYLQDLVEGMDFQGPGES
B3: Flag-MDA5 (protein, UniProt Q9BYX4 1-1025)
chain: MSNGYSTDENFRYLISCFRARVKMYIQVEPVLDYLTFLPAEVKEQIQRTVATSGNMQAVELLLSTLEKGVWHLGWTREFVEALRRTGSPLAARYMNPELTDLPSPSFENAHDEYLQLLNLLQPTLVDKLLVRDVLDKCMEEELLTIEDRNRIAAAENNGNESGVRELLKRIVQKENWFSAFLNVLRQTGNNELVQELTGSDCSESNAEIENLSQVDGPQVEEQLLSTTVQPNLEKEVWGMENNSSESSFADSSVVSESDTSLAEGSVSCLDESLGHNSNMGSDSGTMGSDSDEENVAARASPEPELQLRPYQMEVAQPALEGKNIIICLPTGSGKTRVAVYIAKDHLDKKKKASEPGKVIVLVNKVLLVEQLFRKEFQPFLKKWYRVIGLSGDTQLKISFPEVVKSCDIIISTAQILENSLLNLENGEDAGVQLSDFSLIIIDECHHTNKEAVYNNIMRHYLMQKLKNNRLKKENKPVIPLPQILGLTASPGVGGATKQAKAEEHILKLCANLDAFTIKTVKENLDQLKNQIQEPCKKFAIADATREDPFKEKLLEIMTRIQTYCQMSPMSDFGTQPYEQWAIQMEKKAAKEGNRKERVCAEHLRKYNEALQINDTIRMIDAYTHLETFYNEEKDKKFAVIEDDSDEGGDDEYCDGDEDEDDLKKPLKLDETDRFLMTLFFENNKMLKRLAENPEYENEKLTKLRNTIMEQYTRTEESARGIIFTKTRQSAYALSQWITENEKFAEVGVKAHHLIGAGHSSEFKPMTQNEQKEVISKFRTGKINLLIATTVAEEGLDIKECNIVIRYGLVTNEIAMVQARGRARADESTYVLVAHSGSGVIEHETVNDFREKMMYKAIHCVQNMKPEEYAHKILELQMQSIMEKKMKTKRNIAKHYKNNPSLITFLCKNCSVLACSGEDIHVIEKMHHVNMTPEFKELYIVRENKALQKKCADYQINGEIICKCGQAWGTMMVHKGLDLPCLKIRNFVVVFKNNSTKKQYKKWVELPITFPNLDYSECCLFSDED
B4: Flag-TBK1 (protein, UniProt Q9UHD2 1-729)
chain: MQSTSNHLWLLSDILGQGATANVFRGRHKKTGDLFAIKVFNNISFLRPVDVQMREFEVLKKLNHKNIVKLFAIEEETTTRHKVLIMEFCPCGSLYTVLEEPSNAYGLPESEFLIVLRDVVGGMNHLRENGIVHRDIKPGNIMRVIGEDGQSVYKLTDFGAARELEDDEQFVSLYGTEEYLHPDMYERAVLRKDHQKKYGATVDLWSIGVTFYHAATGSLPFRPFEGPRRNKEVMYKIITGKPSGAISGVQKAENGPIDWSGDMPVSCSLSRGLQVLLTPVLANILEADQEKCWGFDQFFAETSDILHRMVIHVFSLQQMTAHKIYIHSYNTATIFHELVYKQTKIISSNQELIYEGRRLVLEPGRLAQHFPKTTEENPIFVVSREPLNTIGLIYEKISLPKVHPRYDLDGDASMAKAITGVVCYACRIASTLLLYQELMRKGIRWLIELIKDDYNETVHKKTEVVITLDFCIRNIEKTVKVYEKLMKINLEAAELGEISDIHTKLLRLSSSQGTIETSLQDIDSRLSPGGSLADAWAHQEGTHPKDRNVEKLQVLLNCMTEIYYQFKKDKAERRLAYNEEQIHKFDKQKLYYHATKAMTHFTDECVKKYEAFLNKSEEWIRKMLHLRKQLLSLTNQCFDIEEEVSKYQEYTNELQETLPQKMFTASSGIKHTMTPIYPSSNTLVEMTLGMKKLKEEMEGVVKELAENNHILERFGSLTMDGGLRNVDCL

No constants are given. Whether binding was seen depends on the method and setting. Binding seen in cells or lysates may run through a third protein. Some binding calls cover weakened binding; strength is not graded here. Tags and fused reporters may be left off the sequences shown.

This assay has as its target HA-tagged Ring finger protein 166 (RNF166) (human) (UniProt Q96A37). In words: co-IP; 293T cells co-transfected with the indicated plasmids (RNF166 or its truncations, and Flag-tagged partners); lysis in 20 mM Tris pH 7.5, 150 mM NaCl, 1% Triton X-100, 1 mM EDTA; lysates immunoprecipitated with anti-HA; western blot with anti-HA and anti-Flag (Fig. 2D, Fig. 4F).
For Flag-VISA (from UniProt Q7Z434 1-540), the binding entry is listed as “binds”.
For the molecule B1, the binding entry is given as “no binding”.
The result for B2 reads “no binding”; that for B3, “no binding”; that for B4, “no binding”.
